Assay results from article PMC9911399, “Two distinct binding modes provide the RNA-binding protein RbFox with extraordinary sequence specificity”.
Numbering of substitutions follows the chain as printed; changes in the protein carry UniProt numbers. The list shows a part of the results.

T1: RBFOX1 RRM (Homo sapiens, UniProt Q9NWB1 109-208)
T1 sequence: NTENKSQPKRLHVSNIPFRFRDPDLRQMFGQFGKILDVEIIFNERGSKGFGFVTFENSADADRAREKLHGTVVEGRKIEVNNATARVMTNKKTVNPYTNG

B1: GCACUCC (DNA:RNA)
RNA: GGGAGACCGGAAUUCAGAUUGUCCGCACUCCUUAAAUCCCGUCGUAGCCACCA
DNA 1: CAATCTGAATTCCGGTCTCCC
DNA 2: TGGTGGCTACGACGGGATT
B2: UUUCGUA (DNA:RNA)
RNA: B1 RNA with G25U, C26U, A27U, U29G, C30U, C31A
DNA 1: CAATCTGAATTCCGGTCTCCC
DNA 2: TGGTGGCTACGACGGGATT
B3: AGCAAGC (DNA:RNA)
RNA: B1 RNA with G25A, C26G, A27C, C28A, U29A, C30G
DNA 1: CAATCTGAATTCCGGTCTCCC
DNA 2: TGGTGGCTACGACGGGATT
B4: GGCCGUA (DNA:RNA)
RNA: B1 RNA with C26G, A27C, U29G, C30U, C31A
DNA 1: CAATCTGAATTCCGGTCTCCC
DNA 2: TGGTGGCTACGACGGGATT
B5: AGUCCCU (DNA:RNA)
RNA: B1 RNA with G25A, C26G, A27U, U29C, C31U
DNA 1: CAATCTGAATTCCGGTCTCCC
DNA 2: TGGTGGCTACGACGGGATT
B6: CCAAUCA (DNA:RNA)
RNA: B1 RNA with G25C, C28A, C31A
DNA 1: CAATCTGAATTCCGGTCTCCC
DNA 2: TGGTGGCTACGACGGGATT
B7: CUGGUGG (DNA:RNA)
RNA: B1 RNA with G25C, C26U, A27G, C28G, C30G, C31G
DNA 1: CAATCTGAATTCCGGTCTCCC
DNA 2: TGGTGGCTACGACGGGATT
B8: UCAAUCA (DNA:RNA)
RNA: B1 RNA with G25U, C28A, C31A
DNA 1: CAATCTGAATTCCGGTCTCCC
DNA 2: TGGTGGCTACGACGGGATT
B9: CAUGGCC (DNA:RNA)
RNA: B1 RNA with G25C, C26A, A27U, C28G, U29G
DNA 1: CAATCTGAATTCCGGTCTCCC
DNA 2: TGGTGGCTACGACGGGATT

Biological target: T1, RBFOX1 RRM
Experiment: EMSA; HiTS-Eq, 1 nM pool, 10 min; buffer printed only for the single-RNA assays: 10 mM Tris pH 7.5, 150 mM NaCl, 3.4 mM EDTA, 0.001% NP-40, 30 C
Conditions: tags: His6 N-terminal (pET28a); label: 5' 32P
In short: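 These values rest on relative association constants, computed from read-count changes of each RNA species versus the control reaction and normalised to the cognate motif. Reads came from free RNA recovered by 8% native PAGE after purified RbFox RRM (wild type or mutant) at increasing concentrations was equilibrated for 10 min in 50 µL with 1 nM of a 5′-radiolabelled pool with 7 randomized nucleotides and DNA-annealed flanks.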

First: B1
Second: B2
The binding signal of the first is lower: 0.00634 KA relative to UGCAUGU for the first, 0.0114 KA relative to UGCAUGU for the second.

First: B3
Second: B4
The binding signal of the first is higher: 0.0136 KA relative to UGCAUGU for the first, 0.00981 KA relative to UGCAUGU for the second.

First: B5
Second: B6
The binding signal of the first is higher: 0.00574 KA relative to UGCAUGU for the first, 0.000201 KA relative to UGCAUGU for the second.

First: B7
Second: B8
The binding signal of the first is higher: 0.019 KA relative to UGCAUGU for the first, 0.00144 KA relative to UGCAUGU for the second.

For B9, the binding signal was 0.012 KA relative to UGCAUGU.
